Publication PMC11791976, “CDC20‐Mediated Selective Autophagy Degradation of PBRM1 Affects Immunotherapy for Renal Cell Carcinoma” (Advanced Science, 2024)
These are yes or no findings as the source states them, for the method shown. For part of these data: Binding seen in cells or lysates may run through a third protein. Some binding calls cover weakened binding; strength is not graded here.

The chains behind the UniProt entries cited, without tags or fusion partners. Residues count along the entry.
GST-p62 region 104-221 (Q13501, residues 104-221): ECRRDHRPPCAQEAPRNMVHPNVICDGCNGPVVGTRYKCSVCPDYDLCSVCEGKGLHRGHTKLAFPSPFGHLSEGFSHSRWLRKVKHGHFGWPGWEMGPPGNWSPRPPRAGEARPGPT
UniProt Q12834: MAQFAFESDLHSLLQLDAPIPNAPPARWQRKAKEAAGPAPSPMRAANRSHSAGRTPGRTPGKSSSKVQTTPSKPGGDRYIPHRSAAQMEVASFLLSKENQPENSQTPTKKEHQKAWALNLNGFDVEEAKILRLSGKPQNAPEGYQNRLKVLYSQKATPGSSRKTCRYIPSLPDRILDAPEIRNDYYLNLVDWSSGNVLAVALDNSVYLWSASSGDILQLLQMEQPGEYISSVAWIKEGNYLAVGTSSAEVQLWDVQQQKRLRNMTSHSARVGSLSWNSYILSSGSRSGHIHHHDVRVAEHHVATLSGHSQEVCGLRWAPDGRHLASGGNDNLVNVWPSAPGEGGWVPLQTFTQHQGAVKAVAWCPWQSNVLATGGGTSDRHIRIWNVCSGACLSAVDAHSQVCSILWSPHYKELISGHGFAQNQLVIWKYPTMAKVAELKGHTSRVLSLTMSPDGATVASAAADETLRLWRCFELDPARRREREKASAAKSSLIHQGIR
UniProt Q9UM11: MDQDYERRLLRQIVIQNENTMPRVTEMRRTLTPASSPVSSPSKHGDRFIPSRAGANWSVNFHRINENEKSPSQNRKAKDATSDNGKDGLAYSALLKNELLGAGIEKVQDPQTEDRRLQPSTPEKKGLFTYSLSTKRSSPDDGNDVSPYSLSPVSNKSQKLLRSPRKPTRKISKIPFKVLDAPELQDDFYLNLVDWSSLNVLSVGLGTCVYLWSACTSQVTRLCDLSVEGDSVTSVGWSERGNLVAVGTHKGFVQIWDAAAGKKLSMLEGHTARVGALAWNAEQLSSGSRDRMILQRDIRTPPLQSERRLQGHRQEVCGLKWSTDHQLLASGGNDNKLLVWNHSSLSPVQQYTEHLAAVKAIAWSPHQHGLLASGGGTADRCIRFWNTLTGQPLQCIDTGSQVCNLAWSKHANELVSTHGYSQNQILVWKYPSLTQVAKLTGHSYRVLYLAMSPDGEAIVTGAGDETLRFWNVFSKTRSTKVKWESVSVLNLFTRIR

How the values were obtained:
[1] = target: PBRM1 (Polybromo 1), endogenous (human (endogenous in 786-O and 769-P)) (UniProt Q86U86); assay: co-IP; endogenous proteins; anti-CDC20 or anti-PBRM1 immunoprecipitates of 786-O and 769-P lysates; IP buffer 50 mM Tris-HCl pH 7.4, 120 mM NaCl, 5 mM EDTA, 0.5% NP-40
GST-p62 (pCMV-GST-p62) = GST-p62 (pCMV-GST-p62) (UniProt Q13501); assay: pull-down; GST pull-down from 293T cells co-transfected with GST-p62 (or its truncated constructs) and V5-PBRM1; panels with serum starvation for 24 h, with HA-CDC20 co-transfected, or in CDC20 knock-down cells
GST-p62 region 104-221 = GST-p62 region 104-221 (UniProt Q13501); assay: as above
[2] = target: Flag-p62 (pcDNA3-Flag-p62) (UniProt Q13501); assay: co-IP; 293T cells transfected with tagged proteins; Flag or HA antibody on agarose, 4-6 h; IP buffer 50 mM Tris-HCl pH 7.4, 120 mM NaCl, 5 mM EDTA, 0.5% NP-40; in one panel cells treated with PB1-p62 (5 µM) and chloroquine (50 µM) for 24 h
HA-p62 (pcDNA3-HA-p62) = HA-p62 (pcDNA3-HA-p62) (UniProt Q13501); assay: as above
GST-PBRM1 = GST-PBRM1 (UniProt Q86U86); assay: pull-down; purified GST-PBRM1 (Glutathione Sepharose 4B) and purified HA-CDC20 or HA-CDH1 incubated together at 4 °C for no more than 3 h, washed with IP buffer, western blot; both purified
[3] = target: Flag-tagged PBRM1 (Polybromo 1), pcDNA3.1-PBRM1-3xFlag (UniProt Q86U86); assay: co-IP; 293T cells transfected with tagged proteins; Flag or HA antibody on agarose, 4-6 h; IP buffer 50 mM Tris-HCl pH 7.4, 120 mM NaCl, 5 mM EDTA, 0.5% NP-40; in one panel cells treated with PB1-p62 (5 µM) and chloroquine (50 µM) for 24 h
[4] = target: V5-PBRM1 wild type (pcDNA6.2/N-EmGFP-PBRM1-V5) (UniProt Q86U86); assay: as above

With “CDC20 (cell division cycle 20 homologue), endogenous (from UniProt Q12834 1-499)” the binding [1] was “binds”.
“V5-PBRM1 wild type (pcDNA6.2/N-EmGFP-PBRM1-V5) (from UniProt Q86U86 1-1689)” was tested, and the binding (GST-p62 (pCMV-GST-p62)) was “binds”, the binding (GST-p62 region 104-221) was “binds” and the binding [2] was “binds”. For the same substance, the binding (HA-p62 (pcDNA3-HA-p62)) was “binds”.
In the case of “HA-CDC20 (pcDNA3-HA-CDC20) (from UniProt Q12834 1-499)”, the binding (GST-PBRM1) is reported as “binds”, the binding [3] is reported as “binds” and the binding [4] is reported as “binds”.
For “HA-CDH1 (pcDNA3-HA-CDH1) (from UniProt Q9UM11 1-496)”, the binding (GST-PBRM1) was “no binding”.
